# Data reported in PubChem BioAssay AID588453 (National Center for Advancing Translational Sciences (NCATS), 2011).
# In all, about 390,000 compounds went through this assay and about 4,000 (1%) were called active. Inconclusive results, whose numbers are uncertain, are shown with a selection of clear calls. Calls follow the shape of the dose curve; as a rule, active = well fitted inhibition curve with a large enough effect; inconclusive = small, poorly fitted or top-dose-only effect; inactive = no such curve, though single readings can be large or run the other way. Potencies beside an inconclusive call are fits to weak or partial responses and may not hold up.
# Target: Thioredoxin reductase 1, cytoplasmic (Rattus norvegicus) (UniProt O89049)
# UniProt O89049, sequence (O89049 whole entry, looked up): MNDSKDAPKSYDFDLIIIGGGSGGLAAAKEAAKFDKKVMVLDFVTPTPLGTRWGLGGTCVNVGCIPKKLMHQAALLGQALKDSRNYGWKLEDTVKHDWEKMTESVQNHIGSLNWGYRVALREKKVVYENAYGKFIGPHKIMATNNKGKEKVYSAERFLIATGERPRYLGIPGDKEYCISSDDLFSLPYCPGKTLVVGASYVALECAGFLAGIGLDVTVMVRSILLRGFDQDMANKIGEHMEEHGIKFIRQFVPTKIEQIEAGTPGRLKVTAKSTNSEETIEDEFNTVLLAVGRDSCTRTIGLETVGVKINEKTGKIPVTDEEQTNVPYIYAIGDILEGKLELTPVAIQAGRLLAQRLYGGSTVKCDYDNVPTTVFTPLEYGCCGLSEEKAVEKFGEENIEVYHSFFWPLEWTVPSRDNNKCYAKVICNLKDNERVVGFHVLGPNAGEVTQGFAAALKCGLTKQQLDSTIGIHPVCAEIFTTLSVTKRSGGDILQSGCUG
# Assay: qHTS Assay for Inhibitors of Mammalian Selenoprotein Thioredoxin Reductase 1 (TrxR1): qHTS; also: nearly all actives have a fitted effect of over 65% in size
# Conditions: recombinant rTrxR1, NADPH fluorescence consumption, selenite substrate; series mostly up to 114 µM
# Procedure, shortened: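 Rat TrxR1 (90 nM in the dispensed reagent) was pre-reduced with 400 uM NADPH for 5 min at room temperature, then incubated with compound for 15 min. After 400 uM selenite was added, NADPH fluorescence (Ex 340/Em 450 nm) was followed for 8 min.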
# % is scaled to controls: 0 for no effect and ±100 for the full control effect; potency is read from the fitted curve at half-maximal effect; tags tell the direction and shape of the fitted curve.
Compound,Potency,"activity change, negative = inhibition"
CS(=O)(=O)c1sc(C#N)c2c1C(=O)CC(c1ccccc1)C2 (configuration not stated),inactive,–
O=C1C=CC[C@H](/C=C/C[C@@H](O)C[C@H](O)CCc2ccccc2)O1,"inconclusive: 89.1 µM [inhibitor, single point]",–
Cc1ccc(C(=O)Nc2nc3ccccc3c(=O)s2)cc1,inactive,–
COc1cc(C2Nc3cccc4cccc(c34)N2)cc(OC)c1O,active: 15.8 µM,–
Cc1cc(C)c(-c2nc3ccccc3s2)[nH]1,"inconclusive: 28.2 µM [inhibitor, single point]",–
CC1=Nn2c(nnc2C2CCCCC2)SC1,inactive,–
O=C(C1=NN(c2ccccc2)C2C(=O)N(c3ccc(Cl)cc3)C(=O)C12)c1ccccc1 (configuration not stated),"inconclusive: 89.1 µM [inhibitor, single point]",–
COC(=O)CCCC1=CC2=C(c3ccccc3)C(=O)C(C)(OC(=O)C3CCCC3)C(=O)C2=CN1CC(C)C (configuration not stated),"inconclusive: 70.8 µM [inhibitor, single point]",–
COc1ccccc1N1CCN(C(c2cc3ccc(C)cc3[nH]c2=O)c2nnnn2C2CCCC2)CC1 (configuration not stated),"inconclusive: 15.8 µM [inhibitor, full curve]",–
Cc1ccc(Nc2c(-c3ccc(C)o3)nc3ccccn23)cc1,"inconclusive: 56.2 µM [inhibitor, partial curve]",–
CN(C)/N=C/c1ccc(Sc2ccc([N+](=O)[O-])cc2[N+](=O)[O-])o1,active: 50.1 µM,–
CCN1CCN(C(=O)C2COc3ccccc3O2)CC1 (configuration not stated),"inconclusive: 50.1 µM [inhibitor, partial curve]",–
CN1c2ccsc2C(O)=C(C(=S)Nc2ccc(F)c(Cl)c2)S1(=O)=O,"inconclusive: 35.5 µM [inhibitor, partial curve]",–
CCc1nnc(NC(=O)c2nc(S(=O)(=O)Cc3ccccc3)ncc2Cl)s1,active: 44.7 µM,–
Cc1cc(C)n2nc(-c3ccccc3)cc2n1,inactive,–
C[N+]1(CC(=O)c2ccc(O)c(O)c2)CCOCC1,inactive,–
COc1ccc(C2=CC3=C(Br)C(=O)C(C)(OC(=O)c4cccs4)C(=O)C3=CO2)cc1 (configuration not stated),active: 50.1 µM,–
CCOC(=O)CSC1=NC(=O)/C(=C\c2ccc(OC(C)=O)cc2)S1,active: 8.91 µM,–
Cc1nnc(SCCCCSc2nnc(C)c(=O)[nH]2)[nH]c1=O,–,inactive: 12.5% [at 11.4 µM]
CC(C)CC(=O)Nc1ncc([N+](=O)[O-])s1,inactive,–
CCOC(=O)C1=C(COC(=O)/C=C/c2ccco2)NC(=O)NC1C (configuration not stated),"inconclusive: 31.6 µM [inhibitor, single point]",–
Cc1ccc(/C=C(\C#N)C(=O)Nc2cccc3ncccc23)o1,"inconclusive: 56.2 µM [inhibitor, partial curve]",–
COc1ccc(NC(=O)CN(C)S(=O)(=O)c2ccc(Cl)cc2)c([N+](=O)[O-])c1,inactive,–
Cc1c(Cl)c(=O)oc2cc(OCC(=O)N3CCCC(C)C3)ccc12 (configuration not stated),"inconclusive: 100 µM [inhibitor, single point]",–

Compound,Potency,"activity change, negative = inhibition"
Cc1c(C(=O)O)c(O)cc2c1C(=O)c1c(O)c([C@H]3O[C@H](CO)[C@@H](O)[C@H](O)[C@H]3O)c(O)c(O)c1C2=O,"inconclusive: 50.1 µM [inhibitor, partial curve]",–
COC(=O)c1ccc(NCc2cc(O)ccc2O)cc1,"inconclusive: 56.2 µM [inhibitor, partial curve]",–
COc1ccc(COc2cc(-c3cccc(OC)c3)nc3ccc(N)cc23)cc1,"inconclusive: 17.8 µM [inhibitor, single point]",–
Cc1nc2ccc(NC(=O)c3cc([N+](=O)[O-])cc([N+](=O)[O-])c3Cl)cc2s1,"inconclusive: 0.158 µM [inhibitor, full curve, poor fit]",–
CC(C)(Cc1ccc(O)cc1)NC(=O)CC(=O)N/N=C/c1ccc(Cl)cc1,inactive,–
O=C(CSc1ccc(-c2ccco2)nn1)c1ccc(F)cc1,active: 8.91 µM,–
COc1ccc(NC(=O)C2=C(C)Nc3nc(SCc4ccc(C)cc4C)nn3C2c2cccc(OC)c2OC)cc1 (configuration not stated),inactive,–
Cc1occc1C(=O)Nc1cccc(/C=C/C(=O)O)c1,"inconclusive: 50.1 µM [inhibitor, partial curve]",–
Cc1ccc(S(=O)(=O)c2c(C)nn(-c3ccccc3)c2OC(=O)c2ccco2)cc1,"inconclusive: 25.1 µM [inhibitor, partial curve, poor fit]",–
COc1cc(-c2ccno2)ccc1S(=O)(=O)N1CCN(c2cccc(Cl)c2)CC1,inactive,–
COc1cc(C(C2C(=O)CC(C)(C)CC2=O)C2C(=O)CC(C)(C)CC2=O)ccc1OC(C)=O,"inconclusive: 17.8 µM [inhibitor, partial curve, poor fit]",–
COc1ccccc1NC(=O)c1sc2nc(-c3cc4cc(Cl)ccc4oc3=O)[nH]c(=O)c2c1C,inactive,–
CC1CN(c2sc(S(C)(=O)=O)nc2S(=O)(=O)c2ccc(Cl)cc2)CC(C)O1 (configuration not stated),"inconclusive: 50.1 µM [inhibitor, partial curve]",–
Cc1ccc(S(=O)(=O)N(C)C)cc1NC(=O)c1cncc(Br)c1,inactive,–
O=C(CNC(=O)c1ccc2c(c1)OCO2)N/N=C(Br)/C=C/c1ccccc1,inactive,–
CCc1ccccc1NC(=S)N(CCCN1CCOCC1)Cc1ccccn1,"inconclusive: 89.1 µM [inhibitor, single point]",–
CCOC(=O)C1(CCc2ccccc2)CCN(Cc2c(O)cccc2OC)CC1,inactive,–
COC(=O)C1=C[C@@H](C(=O)OC)C2C3=C(C(=O)[C@]2(C)NC(=O)c2ccccc2)[C@H](C)[C@@H]2C(=O)N(C)C(=O)[C@@H]2[C@@H]3C1 (some centres not stated),inactive,–
C=CCNc1oc(-c2ccc(Cl)cc2)nc1C#N,"inconclusive: 56.2 µM [inhibitor, partial curve, poor fit]",–
CCSc1ccc([C@@H]2[C@@H]3C(=O)N(CC)C(=O)[C@@H]3[C@]3(C(=O)OC)CCCCN23)cc1OC,"inconclusive: 79.4 µM [inhibitor, single point]",–
O=S(=O)(NCC1CCN(S(=O)(=O)c2ccccc2)CC1)c1ccccc1,inactive,–
CSc1nc2ccccc2nc1N(C)S(=O)(=O)c1ccc(C)cc1,inactive,–
COc1ccccc1NC(=O)c1nc(S(=O)(=O)Cc2ccccc2)ncc1Cl,active: 3.55 µM,–
O=C(NC(=S)Nc1ccc(F)c(Cl)c1)C1CC1,"inconclusive: 56.2 µM [inhibitor, partial curve]",–

Compound,Potency,"activity change, negative = inhibition"
O=C(CN1CCOCC1)Nc1ccccc1Sc1ccc(Cl)cc1,inactive,–
O=c1[nH]cnc2sc3c(c12)CCN(Cc1ccccc1)C3,"inconclusive: 79.4 µM [inhibitor, single point]",–
CSc1ncc(Cl)c(C(=O)NCc2ccc(C)cc2)n1,inactive,–
COc1ccc(C[C@@H]2OC3(C=CC(=O)C=C3)O[C@H]2Cc2ccc(OC)cc2)cc1,active: 0.562 µM,–
COc1ccc(CCNC(=O)COC(=O)C2CC2)cc1OC,"inconclusive: 89.1 µM [inhibitor, single point]",–
Cc1ccc(CCNC(=O)c2cc3c(s2)-c2ccccc2OC3)cc1,"inconclusive: 89.1 µM [inhibitor, single point]",–
O=C(NCc1ccco1)C1CCCN(S(=O)(=O)c2cnc[nH]2)C1 (configuration not stated),"inconclusive: 79.4 µM [inhibitor, partial curve]",–
N#CC1=C(N)SC(N)=C(C#N)C1C1CC=CCC1 (configuration not stated),"inconclusive: 14.1 µM [inhibitor, partial curve, poor fit]",–
Cc1cc(/C=C2\SC(=S)NC2=O)c(C)n1-c1ccc(O)cc1,"inconclusive: 56.2 µM [inhibitor, partial curve]",–
CC(=O)Nc1ccc(C(=O)Nc2nc(-c3cccnc3)cs2)cc1,inactive,–
COc1ccc(OCCC(=O)c2ccc(OC)cc2)cc1,"inconclusive: 22.4 µM [inhibitor, partial curve]",–
Cc1scc(C(=O)N/N=C/c2ccco2)c1C,"inconclusive: 89.1 µM [inhibitor, single point]",–
COc1ccc(-c2nc(S(=O)(=O)c3ccc(Cl)cc3)c(N3CCCCCC3)o2)cc1,"inconclusive: 35.5 µM [inhibitor, full curve, poor fit]",–
COc1cc(C2Nc3ccccc3C(=O)N2c2ccccc2)c(Br)cc1OCC(=O)O (configuration not stated),inactive,–
CCCCC(=O)NC(=S)Nc1ccc(S(=O)(=O)N2CCCC2)cc1,"inconclusive: 17.8 µM [inhibitor, partial curve, poor fit]",–
CC(C)(Oc1ccc(Cl)cc1)C(=O)Nc1cccc(-c2cn3cccnc3n2)c1,inactive,–
S=c1[nH]nc(-c2ccco2)n1/N=C/c1ccc(Cl)c(Cl)c1,inactive,–
CC1(C)Cc2c(c(-c3ccco3)nc3sc4c(NCCCO)ncnc4c23)CO1,active: 7.94 µM,–
O=C(c1cnn(C(=O)c2ccco2)c1)c1ccccc1O,"inconclusive: 10 µM [inhibitor, partial curve, poor fit]",–
CCC(=O)N/N=C(\C)CC(=O)Nc1ccc2ccccc2c1,"inconclusive: 15.8 µM [inhibitor, full curve, poor fit]",–
Cc1cc(=O)c(C(=O)c2ccccc2)c(C)o1,inactive,–
Cc1ccccc1NC(=S)NC(=O)Cc1ccc(Cl)cc1,"inconclusive: 15.8 µM [inhibitor, partial curve]",–
COc1ccc(-c2cc3ccc(OCC(=O)NCC4CCC(C(=O)O)CC4)cc3oc2=O)cc1 (configuration not stated),"inconclusive: 89.1 µM [inhibitor, single point]",–
Brc1cccc[n+]1Cc1ccc(C[n+]2ccccc2Br)cc1,–,inactive: 20.2% [at 0.0914 µM]
